{"source": "PubChem BioAssay AID651820", "about": "(National Center for Advancing Translational Sciences (NCATS), 2012)", "note": "The whole screen tested about 340,000 compounds, of which about 12,000 (3.5%) were called active. Inconclusive results, whose numbers are uncertain, are shown with a selection of clear calls. Calls come from the whole dose curve; as a rule, active = well fitted inhibition curve with a large enough effect; inconclusive = small, poorly fitted or top-dose-only effect, or another doubt; inactive = no such curve, though single readings can be large or run the other way. Potencies of inconclusive entries are left out as doubtful fits. % is set by controls: 0 for no effect and ±100 for the full control effect; potency is the fitted concentration of half-maximal effect; tags give direction and shape of the fitted curve."}
{"assay": "qHTS Assay for Inhibitors of Hepatitis C Virus (HCV)", "conditions": "Huh7.5.1 HCVcc-Cre (HCVcc is cell-culture hepatitis C virus) infection, luciferase reporter, 44 h; activity change, negative = inhibition: at 41.8 µM (top of the series)", "how_it_was_run": "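Cells seeded at 1,000/well and cultured 4 h, then compounds added followed by HCVcc-Cre virus (~0.5 moi). After 44 h further culture, luciferase substrate was added, plates held 15 min at room temperature, and luminescence read for 15 sec.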"}
{"smiles": "CC(C)Cc1nc2oc3c(Cl)ncnc3c2c2c1CCCC2", "activity change, negative = inhibition": "inactive: -14.8%"}
{"smiles": "Oc1c(N=Nc2ccccn2)ccc2ccccc12", "Potency": "active: 2.51 µM"}
{"smiles": "COc1ccc(C)cc1-n1c(SCC(=O)NCC2CCCO2)nc2c([nH]c3ccccc32)c1=O", "note": "(centres undefined)", "Potency": "active: 8.91 µM"}
{"smiles": "COc1ccc(OC)c2c(C)cc(N3CCN(C(=O)c4ccc(Cl)cc4)CC3)nc12", "Potency": "inconclusive [inhibitor, partial curve]"}
{"smiles": "CNC(C)C#Cc1ccc2sc3cccc(OC)c3c(=O)c2c1", "note": "(centres undefined)", "Potency": "inconclusive [inhibitor, partial curve, poor fit]"}
{"smiles": "CCC(=O)Nc1cccc(C2=NOC3(C2)C[C@@H](C(N)=O)N(C(=O)COc2ccc(Cl)cc2)C3)c1", "note": "(some centres undefined)", "Potency": "inconclusive [inhibitor, partial curve]"}
{"smiles": "CC(C)C(=O)N1CCN(c2ccc(NC(=O)c3ccc4c(c3)OCCO4)cc2Cl)CC1", "Potency": "active: 12.6 µM"}
{"smiles": "CC(C)Oc1ccc(C(CCN)C2CCCCC2)cc1", "note": "(centres undefined)", "Potency": "inconclusive [inhibitor, partial curve]"}
{"smiles": "CCN1C(=O)[C@H]2[C@@H](c3ccc(-c4ccc(OC)cc4)c(OC)c3)N[C@@](CC(C)C)(C(=O)OC)[C@H]2C1=O", "Potency": "inconclusive [inhibitor, full curve]"}
{"smiles": "COc1ccccc1OCCNC(=O)c1cccc(S(=O)(=O)NCc2ccccc2)c1", "Potency": "inconclusive [inhibitor, single point]"}
{"smiles": "CC(=O)c1cccc(NC(=S)Nc2ccn(Cc3cccc4ccccc34)n2)c1", "Potency": "active: 11.2 µM"}
{"smiles": "O=C(Nc1ccc2nc(-c3cccs3)[nH]c2c1)c1cccs1", "Potency": "active: 12.6 µM"}
{"smiles": "Cc1ccccc1C(C(=O)NC1CCCC1)N(C(=O)Cc1cccs1)c1ccc2c(c1)OCCO2", "note": "(centres undefined)", "activity change, negative = inhibition": "inactive: -24.5%"}
{"smiles": "O=C(c1cc2nc(-c3ccccc3)cc(C(F)(F)F)n2n1)N1CCOCC1", "Potency": "inconclusive [inhibitor, single point]"}
{"smiles": "Cc1sc2nc3n(c(=O)c2c1C)CCCS3", "Potency": "inconclusive [inhibitor, partial curve, poor fit]"}
{"smiles": "O=C(O)c1[nH]c2ccc(Cl)cc2c1CC(=O)N1CCN(c2ccccc2)CC1", "activity change, negative = inhibition": "inactive: -1.32%"}
{"smiles": "CCC(=O)c1cc(F)c(N2CCN(S(=O)(=O)c3ccc(C)cc3)CC2)cc1C", "Potency": "active: 12.6 µM"}
{"smiles": "CCOC(=O)/C(C#N)=C/c1cn(CCOc2ccccc2)c2ccccc12", "Potency": "inconclusive [inhibitor, single point]"}
{"smiles": "CCc1cccc2c(C(=O)COC(=O)/C=C/c3ccccc3OC)c[nH]c12", "Potency": "inconclusive [inhibitor, full curve]"}
